From the supplement of paper PMC7826260
The list shows a part of the results. One pool of 16,384 single-stranded DNAs met each Rep nickase domain in vitro (1 h at 37 °C, 3 µM enzyme); the outer parts of the 90-letter strands are left off. A value is the log2 ratio of uncut reads to the pool without enzyme; the lower, the more was cut; hits are not called. The scaling is to total reads, so uncut sequences can rise above 0 when many others are cut.

Legend:
Experiment in all cases: uncleaved DNA left, log2 of reads against the no-enzyme library (log2 ratio); higher = less cleavage (more negative = more Rep cleavage of the k-mer); sequences stand for … in CTCGTCCG…ACCGGAGA
[1] = tested on: T1, Rep nickase domain of Muscovy duck circovirus
T1 sequence (residues 1-111 of Rep, tag left off): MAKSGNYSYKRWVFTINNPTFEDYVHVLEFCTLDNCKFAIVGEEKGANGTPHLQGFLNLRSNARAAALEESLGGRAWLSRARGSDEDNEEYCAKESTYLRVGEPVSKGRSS
Protocol: (§1)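 A pool of 90-nt single-stranded DNAs with seven random bases just before the constant AC of the nick site (name = the seven bases) was cut by 3 µM recombinant His6-SUMO-tagged Rep nickase domain (300 nM DNA, 50 mM HEPES pH 8.0, 50 mM NaCl, 1 mM MnCl2, 1 h, 37 °C, three replicates). Uncut DNA was amplified and sequenced.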

[2] = tested on: T2, Rep nickase domain of banana bunchy top virus
T2 sequence (residues 1-94 of Rep, tag left off): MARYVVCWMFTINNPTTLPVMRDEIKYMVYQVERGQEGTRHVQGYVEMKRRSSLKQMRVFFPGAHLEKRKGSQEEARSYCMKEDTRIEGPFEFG
Protocol: as §1

[3] = tested on: T3, Rep nickase domain of cabbage leaf curl virus
T3 sequence (residues 1-116 of Rep, tag left off): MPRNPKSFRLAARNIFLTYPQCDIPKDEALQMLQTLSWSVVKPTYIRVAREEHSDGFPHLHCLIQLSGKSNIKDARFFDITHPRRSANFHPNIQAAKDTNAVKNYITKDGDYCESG
Protocol: as §1

[4] = tested on: T4, Rep nickase domain of chickpea chlorotic dwarf virus
T4 sequence (residues 1-124 of Rep, tag left off): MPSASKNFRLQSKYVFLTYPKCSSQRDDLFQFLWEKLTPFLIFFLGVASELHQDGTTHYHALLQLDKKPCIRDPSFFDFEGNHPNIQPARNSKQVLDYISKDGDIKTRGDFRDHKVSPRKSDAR
Protocol: as §1

[5] = tested on: T5, Rep nickase domain of faba bean necrotic yellows virus
T5 sequence (residues 1-98 of Rep, tag left off): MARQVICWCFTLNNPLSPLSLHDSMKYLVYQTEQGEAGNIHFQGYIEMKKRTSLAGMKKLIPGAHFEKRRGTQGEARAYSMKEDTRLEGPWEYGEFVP
Protocol: as §1

[6] = tested on: T6, Rep nickase domain of maize striate mosaic virus
T6 sequence (residues 1-117 of Rep, tag left off): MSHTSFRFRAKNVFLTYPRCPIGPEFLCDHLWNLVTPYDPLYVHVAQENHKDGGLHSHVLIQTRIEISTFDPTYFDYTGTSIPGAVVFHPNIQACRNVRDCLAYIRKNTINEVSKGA
Protocol: as §1

[7] = tested on: T7, Rep nickase domain of porcine circovirus 2
T7 sequence (residues 2-116 of Rep, tag left off): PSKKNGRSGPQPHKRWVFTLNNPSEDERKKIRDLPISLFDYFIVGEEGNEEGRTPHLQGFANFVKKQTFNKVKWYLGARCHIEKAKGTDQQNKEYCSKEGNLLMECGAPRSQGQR
Protocol: as §1

[8] = tested on: T8, Rep nickase domain of tomato golden mosaic virus
T8 sequence (residues 1-124 of Rep, tag left off): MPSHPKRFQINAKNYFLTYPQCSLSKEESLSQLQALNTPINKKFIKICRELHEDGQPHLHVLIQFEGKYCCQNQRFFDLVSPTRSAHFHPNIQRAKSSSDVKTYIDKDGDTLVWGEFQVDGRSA
Protocol: as §1

[9] = tested on: T9, Rep nickase domain of tomato yellow leaf curl virus
T9 sequence (residues 1-136 of Rep, tag left off): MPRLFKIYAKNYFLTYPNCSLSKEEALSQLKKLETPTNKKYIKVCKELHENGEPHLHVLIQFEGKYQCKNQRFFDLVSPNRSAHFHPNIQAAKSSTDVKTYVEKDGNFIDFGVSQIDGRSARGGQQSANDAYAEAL
Protocol: as §1

[10] = tested on: T10, Rep nickase domain of wheat dwarf virus
T10 sequence (residues 1-137 of Rep, tag left off): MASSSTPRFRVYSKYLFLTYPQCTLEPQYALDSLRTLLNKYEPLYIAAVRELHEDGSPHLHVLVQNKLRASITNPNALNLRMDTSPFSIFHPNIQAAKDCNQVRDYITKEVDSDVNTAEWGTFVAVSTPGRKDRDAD
Protocol: as §1

Sequence | uncleaved DNA left (log2) [1] | uncleaved DNA left (log2) [2] | uncleaved DNA left (log2) [3] | uncleaved DNA left (log2) [4] | uncleaved DNA left (log2) [5] | uncleaved DNA left (log2) [6] | uncleaved DNA left (log2) [7] | uncleaved DNA left (log2) [8] | uncleaved DNA left (log2) [9] | uncleaved DNA left (log2) [10]
CTGTGTA | -0.178 | -0.182 | -0.276 | -0.754 | -0.0559 | -0.696 | -0.488 | -0.119 | -0.101 | -0.11
GATCCAT | 0.0649 | 0.0398 | 0.405 | 0.69 | -0.0194 | 1.3 | 0.0817 | -0.0324 | 0.141 | 0.261
TATACGG | 0.101 | 0.122 | 0.637 | 1.69 | 0.123 | 2.22 | 0.209 | 0.234 | 0.0349 | 0.209
GTCCGAG | -0.0102 | 0.062 | 0.79 | 1.72 | 0.0446 | 2.12 | 0.16 | -0.00301 | 0.0944 | 0.0885
AACTTAA | -0.0486 | 0.0598 | -0.154 | -0.773 | 0.063 | -0.57 | -2.04 | 0.158 | 0.125 | 0.0729
TGACCTC | -0.0217 | -0.00777 | 0.114 | 0.459 | -0.0618 | 1.17 | 0.0828 | 0.0402 | 0.0374 | 0.11
CTGCACC | -0.127 | -0.156 | -0.104 | 0.129 | -0.0246 | -0.109 | 0.0256 | -0.106 | -0.146 | -0.0642
CCCACGC | 0.0256 | 0.00768 | 0.0499 | -0.237 | -0.0743 | -0.579 | 0.00716 | -0.0317 | -0.119 | -0.061
TCCAGCA | 0.028 | 0.05 | -0.195 | -0.824 | -0.0108 | -0.953 | -0.187 | -0.067 | 0.0427 | -0.0621
CAGATGA | 0.0848 | -0.0342 | 0.00451 | 0.324 | -0.129 | 0.273 | -0.0166 | 0.0272 | -0.122 | -0.0101
CGAAAGT | 0.0697 | -0.0303 | -0.018 | -0.126 | 0.0121 | -0.389 | 0.0242 | -0.004 | 0.076 | 0.0392
AAGTTTT | -3.32 | -3.37 | -0.481 | -3 | -2.88 | 0.27 | -4.48 | -0.0592 | 0.0212 | -0.0904
TCCTTCA | -0.228 | -0.0811 | -0.0544 | -1.04 | -0.0189 | -0.473 | -0.23 | -0.099 | -0.0322 | 0.0955
GATTGAG | 0.0759 | 0.0848 | -0.712 | 0.524 | 0.0846 | -0.514 | 0.0895 | 0.0336 | 0.121 | -0.0286
AGACTGC | -0.0632 | -0.0235 | 0.0236 | 0.638 | -0.0367 | 1.22 | 0.129 | 0.0325 | -0.0999 | 0.156
TGGGGTC | 0.185 | 0.0968 | 0.771 | 1.5 | 0.0582 | 2.03 | 0.293 | 0.00455 | 0.0637 | 0.153
ATAAGAC | -0.00816 | 0.0751 | -2.39 | -2.34 | 0.0733 | -0.605 | 0.0947 | 0.0304 | -0.00526 | -0.28
TTTCAAT | -0.0835 | 0.0213 | 0.218 | 0.189 | 0.0597 | 0.276 | -0.201 | 0.118 | 0.162 | 0.172
TTCAACG | 0.0726 | -0.0496 | -0.846 | -1.03 | -0.0153 | -1.35 | 0.135 | -0.142 | -0.00987 | -0.0962
TATGATC | -0.00481 | -0.199 | -0.0192 | -0.683 | 0.0337 | -0.328 | -0.07 | -0.137 | -0.0617 | -0.0477
GACAACC | -0.0412 | -0.0548 | 0.131 | -0.649 | -0.0028 | 0.442 | -0.393 | -0.112 | -0.0788 | 0.0253
CTACTCA | 0.0637 | 0.124 | -0.00676 | -1.99 | 0.0375 | -0.464 | -0.124 | 0.00892 | 0.102 | 0.0823
GACATAC | 0.0556 | 0.0585 | 0.608 | 1.35 | 0.0696 | 1.57 | 0.0971 | -0.0187 | 0.0778 | 0.132
TGTTGCC | -0.154 | -0.0915 | -0.55 | -0.581 | -0.0201 | -0.992 | -0.0815 | -0.182 | -0.0531 | -0.226
TGATTCG | 0.0252 | -0.0527 | -0.849 | 0.163 | -0.0456 | -0.886 | 0.0917 | -0.104 | -0.0755 | -0.159
TATACCG | -0.0633 | -0.026 | -0.921 | -0.955 | 0.00494 | -1.01 | -0.0466 | -0.0507 | -0.063 | -0.13
GCAAATA | 0.000557 | 0.112 | -0.0742 | -0.498 | -0.0179 | 0.0436 | 0.0798 | 0.139 | 0.0692 | 0.1
ACGCCGA | -0.209 | -0.085 | -0.349 | -0.271 | -0.0656 | -0.967 | 0.102 | -0.0335 | -0.227 | -0.136
CGTTCCA | 0.011 | 0.0294 | 0.15 | -0.225 | -0.103 | 0.0663 | -0.184 | 0.0574 | -0.0111 | -0.00259
TTATCTT | -3.11 | -0.126 | -2.92 | -2.59 | -0.0943 | -0.998 | -3.2 | -1.81 | 0.151 | -1.96
